Measurements taken from publication PMC6212790.
The other results are listed elsewhere or left out. At the low end of the ranking, values are background and their order means little.

biological target: T1, GST-Rok-C97-191 (UniProt O34857); test: protein binding microarray; details: Rok is a gene silencer of Bacillus subtilis; high values mean tight binding; most listed sequences are background and not binding sites; double strand, one strand shown;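 note: rank score from −0.5 (least bound) to 0.5 (best bound)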
T1 sequence: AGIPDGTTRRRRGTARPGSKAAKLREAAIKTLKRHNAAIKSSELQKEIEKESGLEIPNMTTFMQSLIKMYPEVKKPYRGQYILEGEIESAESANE

Sequence	binding signal
TACCCACA	0.0202 E-score
AACTTGGC	-0.0638 E-score
CCGACGAC	-0.216 E-score
ACCAACAC	0.0682 E-score
TCATTGCA	-0.14 E-score
CAATTGGC	-0.0983 E-score
ATACATTA	0.275 E-score
ATTACGTG	0.144 E-score
ACTGCGAG	0.0579 E-score
AGGTGTAG	0.13 E-score
CAGCCCCG	-0.308 E-score
ACTTCAGC	0.167 E-score
AGACATCT	0.03 E-score
CTCCAGAG	-0.172 E-score
AGTCGCGC	0.0627 E-score
ACCTTTAG	-0.0786 E-score
GCTTGCAA	-0.00333 E-score
GAAAAAAA	0.0944 E-score
CACCAAGC	-0.0373 E-score
AACCGATG	-0.279 E-score
GATATAAA	0.34 E-score
GAAGATTC	0.0351 E-score
AGACCGAC	0.017 E-score
TTACCCAA	0.146 E-score
CAGTACGA	-0.0294 E-score

Sequence	binding signal
GAATGGAC	-0.0916 E-score
ATTGTTCA	0.0705 E-score
AATGCAAG	-0.125 E-score
CCACATCG	-0.0124 E-score
ACTCTACT	0.273 E-score
CTCGTGAA	-0.298 E-score
ATAGCGGA	0.0158 E-score
AGAGAAAC	0.0619 E-score
ATGTCAGG	-0.165 E-score
ACGGTGTA	-0.00348 E-score
TCTGCAAA	-0.126 E-score
ACATCGAC	-0.00506 E-score
ACCAGCGA	0.0716 E-score
CGCGACCG	-0.251 E-score
AGTAGCGC	0.0952 E-score
GTACCTCA	0.0999 E-score
CCCCTACG	-0.368 E-score
TATCCCAA	0.0173 E-score
CCGTTCGC	-0.19 E-score
CATAAAGG	-0.0425 E-score
GTAGTCGA	0.166 E-score
CAACTCCG	-0.0429 E-score
CTAGATAA	0.3 E-score
AGTCGTTA	-0.0639 E-score
CCTAAGCC	-0.202 E-score

Sequence	binding signal
AAACAGTT	0.203 E-score
TCGTAGCA	0.116 E-score
CCGGGGCG	-0.367 E-score
AGGCGCCG	-0.245 E-score
AAATGCGA	0.101 E-score
AATTAAAT	0.276 E-score
ACGACCAT	-0.0437 E-score
CGCTCCTC	-0.274 E-score
GATAGTGC	0.0589 E-score
AAACGGCG	0.0819 E-score
CATTAGTA	0.26 E-score
ATATCCGC	0.116 E-score
AAACGATT	0.0508 E-score
GAAACAAC	0.00876 E-score
GAGGAAGC	-0.106 E-score
GCCTTGAC	-0.199 E-score
GTCGGCCA	-0.102 E-score
ATTTGTTG	-0.00722 E-score
CAGTCAGG	-0.252 E-score
CAAACCCG	-0.153 E-score
AAGTTACA	0.205 E-score
AAAGACTG	-0.218 E-score
CCGAAGAA	0.164 E-score
ACGAGCGG	-0.169 E-score
ACACACGA	0.0273 E-score

Sequence	binding signal
CGCCTGAG	-0.129 E-score
ACAGGGGG	-0.359 E-score
CGGAAGAG	-0.0946 E-score
ATGCGCCC	-0.183 E-score
GCGCGCTA	0.237 E-score
ATTGGTGG	-0.106 E-score
GGATAGTA	0.142 E-score
AGTGGTAA	0.203 E-score
CTCCCCAC	-0.342 E-score
CATATTCC	0.0183 E-score
AAGGCAAA	-0.101 E-score
AACCACAT	-0.0536 E-score
CCAGGAGG	-0.243 E-score
CCCGCTCC	-0.108 E-score
AAATAGAT	0.343 E-score
TGGTAACA	0.162 E-score
AGATCGAA	0.0101 E-score
GCAGGGGC	-0.225 E-score
ACACGCAA	0.0721 E-score
AGAGGGGC	-0.398 E-score
CAGTCAAC	-0.0828 E-score
CACAGCCA	-0.0441 E-score
GCTCCAAC	-0.195 E-score
ACTAATAG	0.292 E-score
ATGAGAAT	0.178 E-score

Sequence	binding signal
ACGGGGTA	0.0665 E-score
AACAAGAT	-0.0656 E-score
ACAATATA	0.354 E-score
AAACTATA	0.398 E-score
ACTATACA	0.302 E-score
AAGCCTAG	-0.147 E-score
GACAGGGC	-0.2 E-score
CAATTGTC	-0.103 E-score
AATCAATG	-0.036 E-score
CGTGTCCC	-0.238 E-score
CTTCTGAC	-0.0313 E-score
GACAGGTC	-0.216 E-score
AGCCAATA	-0.0503 E-score
TCAACACA	-0.0365 E-score
AACACCGT	0.102 E-score
CTTATAAC	0.115 E-score
AGAAAAAG	0.0316 E-score
CCTCGTCA	-0.257 E-score
AAATAACC	0.131 E-score
AACCTTGA	0.00629 E-score
CCGGTACG	-0.0992 E-score
CGATCGCC	-0.0138 E-score
CAGTCCCG	-0.167 E-score
AAGAATTA	0.135 E-score
TAAGTGAA	0.148 E-score

Sequence	binding signal
CGGGGAGA	-0.275 E-score
CCCTGATC	-0.168 E-score
ATCCAATA	0.111 E-score
CTGTGCCC	-0.153 E-score
CAATTTAG	0.232 E-score
ATCAGAGA	-0.00791 E-score
ACTCCGGC	0.0565 E-score
TCCGTCCA	-0.19 E-score
CCCCAAGG	-0.269 E-score
AAAATACT	0.371 E-score
CCGGGGAA	-0.0535 E-score
CCAATTTC	0.133 E-score
TAGTGCGA	0.0718 E-score
ACCCTCTA	-0.122 E-score
ATACTCAG	0.0439 E-score
CAGATGAC	-0.0635 E-score
CCAGCATC	0.0564 E-score
TAGTGGCA	0.104 E-score
GTGCTAAC	0.00834 E-score
GATTCCGA	0.0368 E-score
GATTGGTA	0.202 E-score
AAATCCAA	0.127 E-score
CCAGCCGA	0.0252 E-score
CGACTAAG	-0.112 E-score
CACGGCAC	-0.0947 E-score

Sequence	binding signal
ATAAGTTC	0.228 E-score
CGCTATCA	0.0552 E-score
ACCTGTGC	-0.159 E-score
CCCATATA	0.107 E-score
AGTGTTGG	-0.0462 E-score
GACTCGGC	-0.2 E-score
AAGTACTG	0.145 E-score
CCGGAAGG	-0.206 E-score
AGTGGCAT	-0.0354 E-score
ACATTGAC	0.0683 E-score
CAACGAAA	0.00998 E-score
GCCTGAGA	-0.17 E-score
AATATCAC	0.297 E-score
AATGGGAG	-0.0166 E-score
ATTACAAT	0.262 E-score
AGAAACCT	0.236 E-score
CTTTACCC	-0.188 E-score
GAGCATCC	-0.22 E-score
CGATGAAA	-0.165 E-score
GCGCTAGC	0.00413 E-score
ATAATCCC	-0.0844 E-score
ACGCCGTC	0.0323 E-score
CGGCTCAC	-0.277 E-score
ACAGTGAC	0.0755 E-score
CTAGCGGA	0.0679 E-score

Sequence	binding signal
AAGCGTGT	-0.00149 E-score
AGCGGTCC	-0.154 E-score
CCGGGACG	-0.279 E-score
CCACTGAA	-0.0731 E-score
ATAAACTG	0.199 E-score
AGCGCTTC	-0.0803 E-score
AATCTAAA	0.167 E-score
CAGCTAAC	-0.000593 E-score
CTCAGCCC	-0.142 E-score
GAATAGGC	-0.222 E-score
AACAGGAC	0.0173 E-score
ATGTAAAT	0.373 E-score
CGAAAGAC	-0.0876 E-score
CCCGGTCG	-0.238 E-score
CGTTTGAA	-0.0956 E-score
TATAGATA	0.368 E-score
GCAAGGTA	0.106 E-score
CATTATAA	0.122 E-score
ACGCCATA	-0.0598 E-score
ATGAACTG	0.088 E-score
AGACCAGA	-0.278 E-score
AGAACGAA	0.0755 E-score
CCGTGGAA	-0.103 E-score
GCTAATTA	0.289 E-score
ATCGACAA	0.155 E-score

Sequence	binding signal
GATTCACC	-0.164 E-score
CCCGTACG	-0.0278 E-score
GCATTCCA	-0.0351 E-score
GCCGCCAA	-0.337 E-score
GATGAAAA	0.105 E-score
ATTATGGC	0.162 E-score
AGTCTGAC	-0.124 E-score
CGTTGTCC	-0.0612 E-score
ATTTGGTC	0.0459 E-score
CCGGTTAA	0.0256 E-score
GGCGTGAA	-0.14 E-score
ACAGTAGC	0.278 E-score
GACATAGA	0.134 E-score
TGAGTGAA	-0.121 E-score
CTTTCCGA	-0.184 E-score
TCGTCGAA	0.0573 E-score
CAAACCTC	0.00823 E-score
GGCTCGAC	-0.166 E-score
CTCCGAAG	0.00969 E-score
